Results from PubChem BioAssay AID485360 (National Center for Advancing Translational Sciences (NCATS), 2010).
Among all 230,000 compounds or so, about 1,500 (0.65%) were called active. Inconclusive results, whose numbers are uncertain, are shown with a selection of clear calls. The call rests on the fitted dose curve; in most records, active means well fitted inhibition curve with a large enough effect; inconclusive means small, poorly fitted or top-dose-only effect; inactive means no such curve, though single readings can be large or run the other way. Potencies beside an inconclusive call are fits to weak or partial responses and may not hold up.

Biological target: Lethal(3)malignant brain tumor-like protein 1 (Homo sapiens) (UniProt Q9Y468)
Test: qHTS Assay for the Inhibitors of L3MBTL1; further: nearly all actives have a fitted effect of over 60% in size
Details: AlphaScreen L3MBTL1–H3K9me1 peptide binding; activity, negative = inhibition: at 57.1 µM (top of the series)
In short: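 L3MBTL1 50 nM + b-AHA-H3(1-15)K9me1 75 nM, 30 min RT; compound added, 30 min RT; streptavidin donor/Ni-chelate acceptor beads 10 ug/mL each final, 30 min RT dark; AlphaScreen read.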
On the % scale 0 is the no-effect control and ±100 the full control effect; potency means the concentration at half of the fitted maximal effect; tags describe the fitted curve by direction and shape.

Chain of UniProt Q9Y468 (Q9Y468 whole entry, looked up): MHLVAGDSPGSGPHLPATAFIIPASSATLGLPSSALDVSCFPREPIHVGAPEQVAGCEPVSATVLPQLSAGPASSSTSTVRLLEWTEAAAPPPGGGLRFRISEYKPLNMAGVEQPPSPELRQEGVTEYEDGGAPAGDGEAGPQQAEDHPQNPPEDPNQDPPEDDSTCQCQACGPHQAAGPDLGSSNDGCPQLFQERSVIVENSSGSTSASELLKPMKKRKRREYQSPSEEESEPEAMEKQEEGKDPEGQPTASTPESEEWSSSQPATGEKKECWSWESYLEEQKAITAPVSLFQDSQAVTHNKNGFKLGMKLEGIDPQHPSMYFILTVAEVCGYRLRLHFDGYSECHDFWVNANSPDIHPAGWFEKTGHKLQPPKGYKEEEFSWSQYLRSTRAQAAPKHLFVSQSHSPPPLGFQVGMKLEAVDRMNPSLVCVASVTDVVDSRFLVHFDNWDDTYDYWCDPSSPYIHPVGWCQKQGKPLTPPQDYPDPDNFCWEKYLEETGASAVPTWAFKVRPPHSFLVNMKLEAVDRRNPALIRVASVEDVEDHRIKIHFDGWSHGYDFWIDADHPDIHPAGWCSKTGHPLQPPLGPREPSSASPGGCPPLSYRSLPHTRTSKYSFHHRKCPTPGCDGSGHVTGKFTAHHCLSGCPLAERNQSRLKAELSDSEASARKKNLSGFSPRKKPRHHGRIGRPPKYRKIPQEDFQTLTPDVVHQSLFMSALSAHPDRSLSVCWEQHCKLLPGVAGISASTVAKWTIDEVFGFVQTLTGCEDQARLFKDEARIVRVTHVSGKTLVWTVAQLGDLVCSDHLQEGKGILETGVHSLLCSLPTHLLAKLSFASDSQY

Row | Structure (SMILES) | Potency | activity, negative = inhibition
1 | Cc1nc2ccccn2c1C(=O)N/N=C/c1ccc([N+](=O)[O-])o1 | inconclusive: 39.8 µM [inhibitor, single point] | 
2 | CN(C)S(=O)(=O)c1cccc(C(=O)NCC2(N3CCOCC3)CCCCC2)c1 | inactive | 
3 | COc1ccc(C(=O)NCc2cccnc2)cc1C(=O)NCc1cccnc1 | inconclusive: 6.31 µM [inhibitor, single point] | 
4 | Oc1[nH]c2ccccc2c1N=NC(=S)N1CCOCC1 | active: 28.2 µM | 
5 | C=CCn1c(C)cc(-c2csc(NC)n2)c1C | inconclusive: 35.5 µM [inhibitor, single point] | 
6 | CCC(C)NC(=O)c1n[nH]c(=O)c2ccccc12 (stereo not given) | inconclusive: 0.794 µM [inhibitor, single point] | 
7 | c1ccc(Nc2ccnc(Nc3ccccc3)n2)cc1 | inactive | 
8 | CC(=O)N1CCN(c2ccc(NCc3ccc(C)s3)cc2)CC1 | inconclusive: 22.4 µM [inhibitor, single point] | 
9 | S=c1[nH]nc(COc2ccccc2)n1C1CCCCC1 |  | inactive: -1.76% [at 11.4 µM]
10 | CCCc1nc2sc3ccccc3c(=O)c2c(=O)n1Cc1ccco1 | inconclusive: 31.6 µM [inhibitor, single point] | 
11 | C=CCNC(=O)/C(=C\c1ccc(Br)cc1)NC(=O)c1ccccc1OC | inconclusive: 35.5 µM [inhibitor, single point] | 
12 | Cc1ccc(C(=O)NC(NCC2CCCO2)C(Cl)(Cl)Cl)cc1 (stereo not given) | inconclusive: 0.794 µM [inhibitor, single point] | 
13 | COc1cc(C(=O)NCc2ccc3[nH]c(C)cc3c2)cc(OC)c1OC | inactive | 
14 | Cc1c(Cl)cnc(NC(=O)COC(=O)c2ccc([N+](=O)[O-])s2)c1Cl | inconclusive: 39.8 µM [inhibitor, single point] | 
15 | Cn1c(=O)c([N+](=O)[O-])c(-n2cnc3ccccc32)c2ccccc21 | inactive | 
16 | C=CCn1c(C)cc(C(=O)Cn2ncc(Cl)c(Cl)c2=O)c1C | active: 14.1 µM | 
17 | NC(=O)c1ccc(Oc2ccc3ccc(=O)oc3c2)c([N+](=O)[O-])c1 | inconclusive: 39.8 µM [inhibitor, single point] | 
18 | COc1cc([C@@H]2CC=C(C(=O)O)[C@H](c3ccccc3)N2S(=O)(=O)c2ccc(C)cc2)cc(OC)c1OC | inconclusive: 7.08 µM [inhibitor, single point] | 
19 | N#CC(C#N)=CN=c1ccn(Cc2ccc(Cl)cc2Cl)cc1 | inconclusive: 39.8 µM [inhibitor, single point] | 
20 | O=C(C[n+]1ccc(-c2cc(C(=O)Nc3cccc(C(F)(F)F)c3)c3ccccc3n2)cc1)c1cccc([N+](=O)[O-])c1 | inconclusive: 31.6 µM [inhibitor, single point] | 
21 | O=C(NC(NC(=S)Nc1ccccc1)C(Cl)(Cl)Cl)c1cccc(Cl)c1 (stereo not given) | inactive | 
22 | COc1cc(C)ccc1OC(C)C(=O)Nc1ccc(N2CCCCC2)cc1 (stereo not given) | inconclusive: 15.8 µM [inhibitor, single point] | 
23 | O=C1C2C3C=CC([C@@H]2C(=O)N1c1nccs1)C31CC1 (stereo not given in full) | inactive | 

Row | Structure (SMILES) | Potency | activity, negative = inhibition
24 | CSc1nsc(SC)c1C(=O)O | inconclusive: 0.141 µM [inhibitor, full curve, poor fit] | 
25 | COc1ccc(-c2nc(CS(=O)CC(=O)NCCCN3CCCC3)c(C)o2)cc1OC (stereo not given) | inconclusive: 31.6 µM [inhibitor, partial curve] | 
26 | Cc1cc(C(=O)Nc2ccc(Nc3ccccc3)cc2)ccc1[N+](=O)[O-] |  | inactive: -2.71% [at 2.29 µM]
27 | COc1ccc(C(=O)N[C@H](C(=O)Nc2nc3ccccc3[nH]2)C(C)C)cc1 | inactive | 
28 | O=C(CSc1nnc(CNc2ccc(F)cc2)n1Cc1ccco1)NC1CC1 | inactive | 
29 | O=C(COC(=O)/C(=C/c1cccs1)c1cccs1)NC(c1ccccc1)c1ccccc1 | inconclusive: 25.1 µM [inhibitor, single point] | 
30 | c1cn(CCCNC2=NCCCCC2)cn1 | inactive | 
31 | O=C(Nc1ccc(-c2noc(COc3ccccc3Cl)n2)cc1)c1ccco1 | inconclusive: 10 µM [inhibitor, full curve, poor fit] | 
32 | COc1ccccc1Oc1c(C)oc2c(CN(C)C)c(O)ccc2c1=O | inconclusive: 6.31 µM [inhibitor, single point] | 
33 | Nc1nc(SCC(=O)N2CCN(S(=O)(=O)c3ccc(Cl)cc3)CC2)n[nH]1 | inconclusive: 0.112 µM [inhibitor, full curve, poor fit] | 
34 | Cc1ccnc(NC(=O)COC(=O)c2ccc(F)cc2F)n1 | inconclusive: 31.6 µM [inhibitor, single point] | 
35 | COc1cc(NS(=O)(=O)c2ccc(NC(=S)NC(=O)/C=C/c3ccco3)cc2)ncn1 | inconclusive: 35.5 µM [inhibitor, single point] | 
36 | COc1ccc(Cl)cc1NC(=O)CN(C)CC(=O)Nc1cccc(S(=O)(=O)N2CCCC2)c1 | inconclusive: 6.31 µM [inhibitor, single point] | 
37 | COc1ccc2ncn(-c3ccccc3)c2c1 | inactive | 
38 | Cc1cc(C(=O)NCc2cc(C(=O)O)co2)co1 | inconclusive: 22.4 µM [inhibitor, single point] | 
39 | O=c1c2c3c(sc2n2cnnc2n1-c1ccccc1)N(Cc1ccccc1)CCC3 | inactive | 
40 | Cc1ccc2c(c1)-c1c(ssc1=S)C(C)(C)N2C(=O)c1ccco1 | inconclusive: 3.55 µM [inhibitor, single point] | 
41 | CCOC(=O)Cc1csc(NC(=O)COc2ccc3c(C)cc(=O)oc3c2)n1 | inconclusive: 35.5 µM [inhibitor, partial curve] | 
42 | O=C(O)c1cc(-c2ccccn2)n[nH]1 | inactive | 
43 | CCc1ccc(C(=O)c2cn(CC(=O)Nc3cccc(OC)c3)c3ccc(OC)cc3c2=O)cc1 | inactive | 
44 | Cc1ccc(N2CCN(c3ccc(NCc4nc5ccccc5n4C)cc3)CC2)cc1 | inconclusive: 25.1 µM [inhibitor, partial curve, poor fit] | 
45 | Cc1ccnc2c(N3C(=O)C4C5c6ccccc6C(c6ccccc65)C4C3=O)cccc12 (stereo not given) | inconclusive: 7.08 µM [inhibitor, single point] | 
